Assay results: the supplement of paper PMC9174493
Counter-ions that a name gives are not always drawn. This is one part of the list. Single values of this set are uncertain. Values with irradiation are relative to irradiated vehicle.

test system: A549-Dual; assay: ISRE reporter (Lucia luciferase) activity, viability-corrected, relative to vehicle (fold change vs vehicle); higher = more activation of STING-IRF / NF-kB immune response reporter; conditions: 10 µM; irradiation: 8 Gy/4 fr

Structure (SMILES)	ISRE reporter
CC(=O)C1CCC2C3CCC4=CC(=O)CCC4(C)C3CCC12C (centres undefined) [Progesterone]	0.247
NCCCC(O)(P(=O)(O)O)P(=O)(O)[O][Na].O.O.O (centres undefined) [Alendronate sodium trihydrate]	0.702
Cc1cc2c(cc1S(N)(=O)=O)S(=O)(=O)CCC2 [Meticrane]	0.85
Cc1cc(NS(=O)(=O)c2ccc(N)cc2)no1 [Sulfamethoxazole]	0.904
COc1ccc(NS(=O)(=O)c2ccc(N)cc2)nn1 [Sulfamethoxypyridazine]	0.772
Cc1ccccc1N1CCN(CCc2nnc3n2CCCC3)CC1.Cl [Dapiprazole Hydrochloride]	0.681
Cc1c(C)c2c(c(C)c1O)CCC(C)(COc1ccc(CC3SC(=O)NC3=O)cc1)O2 (centres undefined) [Troglitazone (CS-045)]	0.265
Cl.NCc1ccc(S(N)(=O)=O)cc1 [Mafenide hydrochloride]	0.742
CC(C)(CO)C(O)C(=O)NCCC(=O)[O-].[Na+] [D-Pantothenate Sodium]	0.812
CCCCOCc1ccc(O)c(OC)c1 [Vanillyl Butyl Ether]	0.708
CC(C)=C1C/C=C(\C)CC/C=C(\C)CC1=O [Germacrone]	0.922
COc1ccc2cc(C(=O)O)ccc2c1 [6-Methoxy-2-naphthoic acid]	0.638
Clc1ccc(C(Cn2ccnc2)OCc2ccc(Sc3ccccc3)cc2)c(Cl)c1.O=[N+]([O-])O (centres undefined) [Fenticonazole Nitrate]	0.291
CC(NC(CCc1ccccc1)C(=O)O)C(=O)N1CCCC1C(=O)O.O.O (centres undefined) [Enalaprilat Dihydrate]	0.992
O=C1CCCC(=O)C1C(=O)c1ccc(C(F)(F)F)cc1[N+](=O)[O-] [Nitisinone]	0.939
C=C1/C(=C\C=C2/CCC[C@]3(C)[C@@H]([C@H](C)/C=C/[C@H](C)C(C)C)CC[C@@H]23)C[C@@H](O)C[C@@H]1O [Doxercalciferol]	0.456
NC(=O)NC(CCC(=O)O)C(=O)O (centres undefined) [Carglumic Acid]	1.02
COCCCOc1ccnc(CS(=O)c2nc3ccccc3[n]2[Na])c1C (centres undefined) [Rebeprazole sodium]	0.392
CC1(C)NC(=O)N(c2ccc([N+](=O)[O-])c(C(F)(F)F)c2)C1=O [Nilutamide]	0.412
CC(=O)Oc1cc(C(C)C)c(OCCN(C)C)cc1C.Cl [Moxisylyte hydrochloride]	0.814

Structure (SMILES)	ISRE reporter
NC(=O)CC(N)C(=O)O.O (stereo not drawn) [L(+)-Asparagine monohydrate]	0.798
CC(NCc1ccc(OCc2cccc(F)c2)cc1)C(N)=O (centres undefined) [Safinamide]	0.914
CCc1ccc(CCOc2ccc(CC3SC(=O)NC3=O)cc2)nc1.Cl (centres undefined) [Pioglitazone HCl]	0.493
CNCCc1ccccn1.CS(=O)(=O)O.CS(=O)(=O)O [Betahistine mesylate]	0.681
O=c1c(-c2ccc(O)cc2)coc2cc(OC3OC(CO)C(O)C(O)C3O)ccc12 (centres undefined) [Daidzin]	0.647
N[C@@H](CCC(=O)O)C(=O)O [(S)-Glutamic acid]	0.181
COC(=O)Nc1nc2ccc(C(=O)c3ccc(F)cc3)cc2[nH]1 [Flubendazole]	0.244
CCCNCC(O)COc1ccccc1C(=O)CCc1ccccc1 (centres undefined) [Propafenone HCl]	0.848
CCCCCCCCCCCCCCCCOP(=O)([O-])OCC[N+](C)(C)C [Miltefosine]	1.01
O=C1Nc2ccccc2C1=O [Isatin]	0.55
C#CCN(C)Cc1ccccc1.Cl [Pargyline hydrochloride]	0.623
CC12CC3CC(C)(C1)CC(N)(C3)C2.Cl [Memantine HCl]	0.897
CC(C)OC(=O)C(C(=O)OC(C)C)=C1SC=CS1 [Malotilate]	0.789
COc1cc(Cc2cnc(N)nc2N)cc(OC)c1OC [Trimethoprim]	1.21
CN(CCN1CCC(OC(=O)Nc2ccccc2-c2ccccc2)CC1)C(=O)c1ccc(CN2CCC(C(N)=O)CC2)cc1 [Revefenacin]	0.994
Nc1c2c(nc3ccccc13)CCCC2 [Tacrine hydrochloride hydrate]	0.632
NS(=O)(=O)c1cc2c(cc1Cl)N=CNS2(=O)=O [Chlorothiazide]	0.847
CS(=O)(=O)O.CS(=O)(=O)O.N=C(N)Nc1ccc(C(=O)Oc2ccc3cc(C(=N)N)ccc3c2)cc1 [Nafamostat Mesylate]	0.49
O=C1C(N(CO)C(=O)NCO)N(CO)C(=O)N1CO (centres undefined) [Diazolidinyl urea]	1.2
